Results as given in PubChem BioAssay AID485281 (National Center for Advancing Translational Sciences (NCATS), 2010).
Where “and” joins values, the source holds several entries; their conditions need not be identical. Equal values may be shown once. The whole screen tested about 350,000 compounds, of which about 260 (0.074%) were called active. The inconclusive results got no clear call from the source; some entries with a clear call stand among them for comparison. Calls follow the shape of the dose curve; as a rule, active = well fitted inhibition curve with a large enough effect; inconclusive = small, poorly fitted or top-dose-only effect; inactive = no such curve, though single readings can be large or run the other way. Potencies of inconclusive entries are doubtful fits and often do not repeat.
% is scaled to controls: 0 for no effect and ±100 for the full control effect; potency is read from the fitted curve at half-maximal effect; tags tell the direction and shape of the fitted curve.
Also: nearly all actives have a fitted effect of over 20% in size.

Each compound was assayed against Ferritin light chain (Equus caballus) (UniProt P02791) (assay: qHTS Assay for Identification of Novel General Anesthetics). Conditions: apoferritin/1-aminoanthracene competitive binding, fluorescence; activity change, negative = displacement: at 77.5 µM (top of the series).
Chain of UniProt P02791 (P02791 whole entry, looked up): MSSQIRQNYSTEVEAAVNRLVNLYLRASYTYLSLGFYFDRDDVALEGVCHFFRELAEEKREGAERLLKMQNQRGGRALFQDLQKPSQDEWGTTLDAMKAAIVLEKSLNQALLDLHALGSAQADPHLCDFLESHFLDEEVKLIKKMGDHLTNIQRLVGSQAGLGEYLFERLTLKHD
In short: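 Probe: 1-aminoanthracene (50% saturated, PBS). Protein: horse-spleen apoferritin, 10 uM. Incubation: 10 min, room temperature. Detection: 380 nm excitation, 535 nm emission. Analysis: normalized response, four-parameter Hill.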
With `CCn1c(CCNC(=O)c2ccc(OC)cc2)nnc1SCc1ccc(Cl)c(Cl)c1` the Potency was inconclusive: 28.2 µM [inhibitor, partial curve]. In the case of `O=C1CC(C(F)(F)C(F)(F)C(F)(F)F)=Nc2ccccc2N1`, the Potency is reported as inconclusive: 20 µM [inhibitor, partial curve]. In the case of `Cc1ccc(S(=O)(=O)Nc2cc(=O)[nH]c(SCC(=O)Nc3cccc(C)c3)n2)cc1`, the Potency is reported as inconclusive: 10 µM [inhibitor, partial curve]. `COC(=O)Cc1c[nH]c2cccc(OCC(O)CN(Cc3ccc([N+](=O)[O-])cc3)C(C)(C)C)c12` (centres undefined) was tested, and the Potency was inconclusive: 22.4 µM [inhibitor, partial curve]. `Cc1nn(-c2ccc(F)cc2)c(N)c1C1(O)C(=O)Nc2ccccc21` (centres undefined) was tested, and the Potency was inconclusive: 35.5 µM [inhibitor, partial curve]. With `COC(=O)C(CC(=O)c1ccc(Br)cc1)n1nc(C)cc1C` (centres undefined) the “activity change, negative = displacement” value was inactive: -0.916%. In the case of `Cc1ccc(NC(=O)N2CCCC2c2cccs2)cc1` (centres undefined), the Potency is reported as inconclusive: 22.4 µM [inhibitor, partial curve]. With `CSc1ncccc1C(=O)OCC(=O)Nc1cc(C(F)(F)F)ccc1N1CCOCC1` the Potency was inconclusive: 35.5 µM [inhibitor, partial curve]. `CCOCCCNC(=O)C(c1ccc(C)cc1)N(Cc1ccc2c(c1)OCO2)C(=O)c1ccccc1O` (centres undefined) was tested, and the Potency was inconclusive: 39.8 µM [inhibitor, single point]. With `N/C(Cc1nc(-c2ccc(Br)cc2)cs1)=N\O` the Potency was inconclusive: 35.5 µM [inhibitor, partial curve]. For `CC(C)(C)c1nnc(NC(=O)CCS(=O)(=O)c2ccccc2)s1`, the “activity change, negative = displacement” value was inactive: -4.59%. In the case of `CN(/N=C/c1ccc(O)cc1O)c1nc(-c2ccccc2)cc(-c2ccccc2)n1`, the Potency is reported as inconclusive: 31.6 µM [inhibitor, single point]. `Cc1ccc(SC(CC(=O)c2ccc(C(C)(C)C)cc2)C(=O)O)cc1` (centres undefined) was tested, and the Potency was inconclusive: 35.5 µM [inhibitor, single point]. `Cc1ccc(NC(=O)CN(C)S(=O)(=O)c2cccs2)cc1C` was tested, and the Potency was inconclusive: 35.5 µM [inhibitor, partial curve]. For `O=C(CCCCCn1c(=S)[nH]c2cc3c(cc2c1=O)OCO3)N1CCN(C(=O)c2ccco2)CC1`, the “activity change, negative = displacement” value was inactive: -5.73%. In the case of `Nc1nc(SCc2ccc(Cl)c(Cl)c2)n[nH]1`, the Potency is reported as inconclusive: 35.5 µM [inhibitor, partial curve]. `CC(C)C(=O)Nc1ccc(N2CCCC2)c(Cl)c1` was tested, and the Potency was inconclusive: 22.4 µM [inhibitor, partial curve]. With `Cc1ccc(NC(=O)c2nc[nH]c2C(=O)N[C@@H](C)c2ccccc2)cc1` the Potency was inconclusive: 10 µM [inhibitor, partial curve]. `Cc1cc(C)c(C(=O)/C=C/C=C/c2ccccc2)c(=O)[nH]1` was tested, and the Potency was inconclusive: 39.8 µM [inhibitor, single point]. With `COC(=O)C1=C(C(=O)OC)SC(=C2C(=S)C(C)(C)N(C(=O)C(C)C)c3ccccc32)S1` the Potency was inconclusive: 3.55 µM [inhibitor, full curve, poor fit]. For `O=C(CCCSc1nc2ccccc2c(=O)[nH]1)c1ccc(F)cc1`, the Potency was inconclusive: 20 µM [inhibitor, partial curve]. With `Cc1cc(C)nc(SCc2ccc(C(=O)N/N=C/c3ccncc3)cc2)n1` the Potency was inconclusive: 25.1 µM [inhibitor, partial curve]. `C=CCc1ccc(O)c(-c2ccc(O)c(CC=C)c2)c1` was tested, and the Potency was inconclusive: 15.8 µM [inhibitor, partial curve, poor fit] and inconclusive: 14.1 µM [inhibitor, partial curve] and inconclusive: 35.5 µM [inhibitor, single point]. With `CCOC(=O)c1nnn(-c2nonc2-n2cccc2)c1CN1CCC(C)CC1` the Potency was inconclusive: 22.4 µM [inhibitor, partial curve]. In the case of `CCS(=O)(=O)c1ccc(C(=O)N2CCN(c3nc4c(OC)ccc(C)c4s3)CC2)cc1`, the Potency is reported as inconclusive: 12.6 µM [inhibitor, partial curve]. `Cc1cnc(NC(=O)CC2CCCC2)s1` was tested, and the Potency was inconclusive: 31.6 µM [inhibitor, partial curve]. In the case of `C=CCc1ccc(OCc2ccc(C(=O)Nc3ccc(NC(C)=O)cc3)o2)c(OC)c1`, the Potency is reported as inconclusive: 2.82 µM [inhibitor, full curve, poor fit] and inconclusive: 50.1 µM [inhibitor, single point]. With `CCCC1(c2ccccc2)NC(=O)N(CC(=O)c2[nH]c(C)c(C(=O)OCC)c2C)C1=O` (centres undefined) the Potency was inconclusive: 15.8 µM [inhibitor, partial curve]. `Cc1ccc(Nc2cc(C)c3c(O)cccc3n2)cc1C` was tested, and the Potency was inconclusive: 31.6 µM [inhibitor, partial curve]. For `COc1ccccc1-c1n[nH]c(=S)n1Cc1ccccc1`, the “activity change, negative = displacement” value was inactive: -12.9%. For `Cc1cccc2sc(N(CCCN(C)C)C(=O)c3ccc(C(=O)c4ccccc4)cc3)nc12`, the Potency was inconclusive: 17.8 µM [inhibitor, partial curve]. In the case of `CN(C)S(=O)(=O)Oc1ccsc1C(=O)Nc1cccc(Cl)c1`, the Potency is reported as inconclusive: 35.5 µM [inhibitor, partial curve]. With `Cn1c(-c2c(N)n(C3CCCC3)c3nc4ccccc4nc23)nc2ccccc21` the “activity change, negative = displacement” value was inactive: -1.41%. With `COc1cccc(NC(=O)CN(C)C(=O)c2ccc(-c3ccccc3Cl)o2)c1` the Potency was inconclusive: 31.6 µM [inhibitor, partial curve]. `CCCCOc1ccc(N=Cc2ccc[nH]2)cc1` was tested, and the Potency was inconclusive: 35.5 µM [inhibitor, single point]. In the case of `O=C(CN1CCN(c2ccccc2)CC1)Nc1c(C(=O)C2CC2)oc2ccccc12`, the “activity change, negative = displacement” value is reported as inactive: -4.21%. For `Cc1cc(C)cc(NC(=O)N2CCC(CN3CCc4ccccc4C3)CC2)c1`, the Potency was inconclusive: 10 µM [inhibitor, partial curve]. `c1ccc(CCNc2nc(-c3ccncc3)cs2)cc1` was tested, and the Potency was inconclusive: 5.62 µM [inhibitor, full curve, poor fit]. `CCCCCCCCCCOC(=O)Cn1c(COc2ccc(C)cc2)[n+](C)c2ccccc21` was tested, and the Potency was inconclusive: 8.91 µM [inhibitor, partial curve].
